From PubChem BioAssay (NCI)
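96-well plates; 48 h exposure; 5 concentrations. Endpoints by linear interpolation between flanking doses. Not reached: highest tested concentration assigned. GI50 is the concentration that inhibits growth by half.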 A number of entries come with more than one value. Only these are listed. The source may hold further records. For part of these data: Results that share an entry are repeated measurements (runs, samples, wells, individuals or studies). Records carry a tag for their origin. The letters are not those of the source and start again with each entry.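 Definition used: TGI = concentration required for complete inhibition of growth.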 For part of these data: The tests behind the records often covered other concentration ranges, not given here; some values may only mark the edge of a range.

Legend:
Assay in all cases: NCI-60 cell line screen, 48 h
[1] = test system: HOP-92 NSCLC
[2] = test system: SK-MEL-2 melanoma
[3] = test system: 786-0 renal
[4] = test system: EKVX NSCLC
[5] = test system: LOX IMVI melanoma
[6] = test system: OVCAR-4 ovarian
[7] = test system: CCRF-CEM leukemia
[8] = test system: HL-60(TB) leukemia
[9] = test system: MOLT-4 leukemia
[10] = test system: SR leukemia

`Cn1cnc([N+](=O)[O-])c1Sc1ncnc2nc[nH]c12` was tested, and the GI50 [1] was 341 nM [sample A, mean of 2 tests] and 17.7 µM [sample B, 1 test] and the GI50 [2] was > 39.8 µM [sample A, mean of 2 tests] and 3.38 µM [sample B, 1 test].

With `Nc1nc(N)c2ncn(CC(CO)CC(c3ccccc3)P(=O)(O)O)c2n1` (configuration not stated) the GI50 [3] was > 100 µM [sample A, 1 test] and 1.35 µM [sample B, 1 test], the TGI [3] was > 100 µM [sample A, 1 test] and 4.32 µM [sample B, 1 test] and the GI50 [4] was > 100 µM [sample A, 1 test] and 780 nM [sample B, 1 test].

For `CCCCS(=N)(=O)CC[C@H](N)C(=O)O` (some centres not stated), the TGI [1] was 355 µM and > 10 mM, the TGI [5] was 967 µM and 4.57 µM and the TGI [6] was 2.87 mM and 45.2 µM.

`COC1C(O)=C2C(=O)OC(C)(O)/C=C/C=C\C=C/C=C/C(c3ccccc3)NC(=O)/C=C/C=C/C=C/C=C/C2(C)C1O` (configuration not stated) was tested, and the TGI [7] was 47.8 nM and > 100 µM, the TGI [8] was 464 nM and > 100 µM and the TGI [9] was 57.7 nM and 612 nM. For the same compound, the TGI [10] was 41.4 nM and > 100 µM.
